From the supplement of paper PMC11417369 come the findings set out here.

± gives the standard deviation of the averaged measurements. The list shows a part of the results.

In the assay the test system is PfAP2-I AP2 domain 3 (GST-tagged). The experiment in a line: gcPBM binding intensity (ln(normalized median fluorescence intensity)); higher = stronger DNA binding. In outline:
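Alexa488 anti-GST antibody, scanned at 488 nm, detected GST-tagged P. falciparum DNA-binding domains that had been expressed in E. coli and incubated for 1 h on an Agilent 4 × 180k array. The array carried primer-extended double-stranded 36-bp intergenic genomic probes and negative controls. Binding intensity is the highest Masliner-normalised natural-log median intensity across replicate spots of either orientation of each probe.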
Turning to “AACGTAAAACATATCTATCAAAATAAATCATTAATC [TGCATGCA_negctrl_site68]”, the “gcPBM binding intensity (ln)” value came to 7.46 ± 0.54. As to “AATATAATAATATTTTGTACATATCCTATGTATGAG [XGTACX_site8601]”, the “gcPBM binding intensity (ln)” value was 7.64 ± 0.35.

Consider “TTTTTTTTTACTGCATGTACTTGATGTAAATAAATT [XGTACX_site3045]”, for which the “gcPBM binding intensity (ln)” value came out at 8.15 ± 0.75. For “AATGGAAATTTTTCTTGTACACATATATGACATGTT [XGTACX_site1691]”, the “gcPBM binding intensity (ln)” value was determined as 7.71 ± 0.59. On to “AATATGACGTAGTGGTGTACACACATGGTACCTTTA [XGTACX_site3147]”, for which the “gcPBM binding intensity (ln)” value turned out to be 8.21 ± 0.45. In the case of “TTATAAATATAATTTTGTACATATATATATATATAC [XGTACX_site5064]”, the “gcPBM binding intensity (ln)” value is 7.77 ± 0.48. For the sequence “TTAGAACTATTTTATACATGCAGTTATTTAATACTT [TGCATGCA_site1039]”, the “gcPBM binding intensity (ln)” value was 7.57 ± 0.71. For the sequence “TATAGAATAATCTATAAACACACAAACACAACAAAA [CACACA_site9374]”, the “gcPBM binding intensity (ln)” value was 8.18 ± 0.28.

For the sequence “AAAAGATAATTATGCACACACACACCCCCACCCAAC [CACACA_site2570]”, the “gcPBM binding intensity (ln)” value was 10.71 ± 0.057. As for “TGTAGCCTGGAGAAGAGTACATAGTATCTGGTAGCT [XGTACX_site4943]”, the “gcPBM binding intensity (ln)” value was 7.85 ± 0.79. As to “CGTATGTGCGGACATGCATGCAATATACAAGAAAAA [TGCATGCA_site145]”, the “gcPBM binding intensity (ln)” value came out at 8.48 ± 0.82. With “TTTTTTTTTTGAAGTGCATGTTACGATGAAAAAAAA [TGCATGCA_site64]”, the “gcPBM binding intensity (ln)” value is 9.025 ± 0.035. In the case of “GTATATTAATAAACATGTACACAATTTATTTATATT [XGTACX_site1012]”, the “gcPBM binding intensity (ln)” value was 7.93 ± 0.41.

As for “TTTTTTTTTAAATGTTGTACATTATATTTGTGTATA [XGTACX_site8354]”, the “gcPBM binding intensity (ln)” value was 7.87 ± 0.54.

In the case of “CTAAATAACTTAAGGTGTACGTTTCCAATAAAAAAA [XGTACX_site1742]”, the “gcPBM binding intensity (ln)” value is 7.78 ± 0.53. Consider “ACATATAAAATGATGCGTACATATTTGATCATATAC [XGTACX_site153]”, for which the “gcPBM binding intensity (ln)” value was determined as 7.95 ± 0.4.

Turning to “TTTTAAAAAGATCATTAAAAAAAAAAAAAGAACAAA [CACACA_negctrl_site528]”, the “gcPBM binding intensity (ln)” value worked out at 7.57 ± 0.62. With “ATAATATAACAATACGCACACGTATACAAAAAAAAA [CACACA_site5703]” the figure was 8.4 ± 0.28; with “AAATAATGGTTAGCTACACACAAAGCATTTTTTGAA [CACACA_site1016]”, 7.34 ± 0.78; with “TGTCTTGTAAATTATTGTACTATTTAAAGTATACAA [XGTACX_site7864]”, 7.67 ± 0.6. The result for “TTGTATATATTTATATGTACATATATTACTTTTGCT [XGTACX_site2449]” reads 7.54 ± 0.47. With “AAAATACAAACAAGTGGTACTGTTTATAAATGGTTG [XGTACX_site1503]” the figure was 7.49 ± 0.55. Turning to “TATCCTAACTTTAGATGTACACAAATAAAAAAAAAA [XGTACX_site4491]”, the “gcPBM binding intensity (ln)” value was 8.12 ± 0.5.

For the sequence “CCATATAAAATATAAAAACACACGTATATATACATA [CACACA_site1511]”, the “gcPBM binding intensity (ln)” value is 7.54 ± 0.57. On to “ACAAAATGTAGAAAATGTACAAAATTAACAAAAGAA [XGTACX_site5019]”, for which the “gcPBM binding intensity (ln)” value was 8.03 ± 0.68. On to “ATTCAATCTTTTAATACACACAATTTATTTCAAAAC [CACACA_site835]”, for which the “gcPBM binding intensity (ln)” value worked out at 7.98 ± 0.51. Turning to “TGTACATATATATAGATATATATAGATATATATATA [CACACA_negctrl_site1678]”, the “gcPBM binding intensity (ln)” value stood at 9.065 ± 0.035. In the case of “CACATATAAATATTAACACACATAATGAGTTATATA [CACACA_site7316]”, the “gcPBM binding intensity (ln)” value stood at 7.59 ± 0.22. Consider “TTATTAAGTAAATCACATTTAATTTTTTTTTTTTTT [CACACA_negctrl_site1280]”, for which the “gcPBM binding intensity (ln)” value was determined as 7.67 ± 0.28. The result for “TTATACCATATTTATAGTACGTACAAATAAATCAAT [XGTACX_site4975]” reads 7.97 ± 0.35. Take “AAGAAAAAAAAAAAAAGTACATGCAATATGGATCTT [XGTACX_site3106]”: the “gcPBM binding intensity (ln)” value was found to be 8.03 ± 0.86.

Turning to “AAACAACATATATTAATATGTACATATATATAGATA [GTGCAC_negctrl_site229]”, the “gcPBM binding intensity (ln)” value stood at 7.7 ± 0.35.

With “TTTTTATTGTTATAGTTATAATATATTATTTGATTA [XGTACX_negctrl_site27]”, the “gcPBM binding intensity (ln)” value is 7.58 ± 0.43.

For “TTTTTTTTTTTTGTAACACACAATAATATAACATTA [CACACA_site3411]”, the “gcPBM binding intensity (ln)” value turned out to be 8.03 ± 0.83. As for “AATAATTGTTAAAGCTGTACAATACTTATATAAGAA [XGTACX_site5729]”, the “gcPBM binding intensity (ln)” value worked out at 7.91 ± 0.44. Turning to “AATGTTTATTAACATTGTACTTATAATATGTCACAA [XGTACX_site2974]”, the “gcPBM binding intensity (ln)” value amounted to 7.81 ± 0.099. Regarding “AATAATAAAGATCAATGTACATAATAAAAAAAAAAA [XGTACX_site2692]”, the “gcPBM binding intensity (ln)” value was 8.03 ± 0.63. Turning to “TATCATGGGTGTATTTCACACACGGATAATCATTTA [CACACA_site8211]”, the “gcPBM binding intensity (ln)” value amounted to 7.46 ± 0.61. Turning to TAATAATTTATAATAGTGCATTTGATTTTAAAAATA, the “gcPBM binding intensity (ln)” value worked out at 9.81 ± 0.51.

Turning to “TTTTTATGGTAAATAAAAATATCTCCCTCCTTAATT [CACACA_negctrl_site1352]”, the “gcPBM binding intensity (ln)” value is 7.42 ± 0.55. Consider “TTAAAAAAATATAATACACACCAAAAATATGCACAT [CACACA_site5209]”, for which the “gcPBM binding intensity (ln)” value is 9.6 ± 0.43. Take “ATTTACATAAATTGCATATATCGATGTAAATAAATA [CACACA_negctrl_site1150]”: the “gcPBM binding intensity (ln)” value was found to be 7.7 ± 0.57. As to “TCTTTTTAAACTAATAGTACATATATATTAATAAAT [XGTACX_site4217]”, the “gcPBM binding intensity (ln)” value is 7.93 ± 0.16.

For “CATTTATTTTTGTTCTGTACATAAAGATGAACAAAA [XGTACX_site6797]”, the “gcPBM binding intensity (ln)” value worked out at 7.75 ± 0.26.
